# Assay results as given in the supplement of paper PMC12355420.
# Where a name gives a salt, the structure may show the parent alone. This is one part of the list. Rule as the data show it: active = 0.5 or less and inactive = the rest. Most values come without repeats; read them as rough.
# Test system: HeLa VPS33A R498W KI + HA-SDC1-FLAG
# Experiment: relative GAG core protein HA-SDC1 amount per cell number vs DMSO (fraction of DMSO); HeLa model of a glycosaminoglycan (GAG) storage disease; KI is knock-in and KO knock-out; SDC1 is syndecan 1; higher = more SDC1 (GAG core protein)
# Conditions: 50 µM; 24 h
# 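Also: HA-SDC1 level read out by In-Cell Western staining with an anti-HA antibody against the N-terminal tag, screening FDA-approved library drugs.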
row,SMILES,relative GAG core protein HA-SDC1 amount per cell number
1,CCCCN(CCCC)CC(O)c1cc(Cl)cc2c1-c1ccc(Cl)cc1/C2=C/c1ccc(Cl)cc1 (stereo not given) [Lumefantrine],inactive: 0.854
2,CCC(=O)OCC(=O)[C@@]1(OC(=O)CC)[C@@H](C)C[C@H]2[C@@H]3CCC4=CC(=O)C=C[C@]4(C)[C@@]3(F)[C@@H](O)C[C@@]21C [Betamethasone Dipropionate],inactive: 0.889
3,O=[N+]([O-])c1cn2c(n1)OC[C@@H](OCc1ccc(OC(F)(F)F)cc1)C2,inactive: 0.95
4,COc1cc2c(cc1OC)CC(=O)N(CCCN(C)C[C@H]1Cc3cc(OC)c(OC)cc31)CC2 [Ivabradine HCl],inactive: 1.09
5,C[C@H](CS)C(=O)N1CCC[C@H]1C(=O)O [Captopril],inactive: 1.25
6,O=C(O)C1(C(=O)O)CCC1.[NH2-].[NH2-].[Pt+2] [Carboplatin],inactive: 0.727
7,Nc1nc2ccc(OC(F)(F)F)cc2s1 [Riluzole],active: 0.387
8,C=CCc1cc(OC)c(O)c(C(=O)NCCO)c1 [Alibendol],inactive: 0.849
9,N[C@@H](Cc1ccc(O)c(O)c1)C(=O)O [Levodopa],inactive: 1.5
10,Cc1cn([C@H]2C[C@H](N=[N+]=[N-])[C@@H](CO)O2)c(=O)[nH]c1=O [Zidovudine],inactive: 0.893
11,CC(C)(C#N)c1cc(Cn2cncn2)cc(C(C)(C)C#N)c1 [Anastrozole],inactive: 1.04
12,CNCc1ccc(-c2[nH]c3cc(F)cc4c3c2CCNC4=O)cc1,active: 0.428
13,CCOC(=O)C1=C(C)NC(C)=C(C(=O)OCC)C1c1ccccc1/C=C/C(=O)OC(C)(C)C [Lacidipine],inactive: 0.672
14,Cc1cc(=O)[nH]c(=S)[nH]1 [Methylthiouracil],inactive: 0.872
15,Cc1cn[nH]c1 [Fomepizole],inactive: 1.2
16,Nc1ccc(S(=O)(=O)Nc2nccs2)cc1 [Sulfathiazole],inactive: 0.799
17,COc1cccc(-c2ccc(NC(=O)C3=C(C(=O)O)CCC3)c(F)c2)c1 [Vidofludimus],inactive: 0.545
18,COc1cccc(OC)c1C(=O)N[C@@H]1C(=O)N2[C@@H]1SC(C)(C)[C@@H]2C(=O)O [Methicillin (sodium salt)],inactive: 0.795
19,O=C(O)Cc1cc(I)c(Oc2ccc(O)c(I)c2)c(I)c1 [Tiratricol],active: 0.427
20,COc1ncnc(NS(=O)(=O)c2ccc(N)cc2)c1OC [Sulfadoxin],inactive: 0.66

row,SMILES,relative GAG core protein HA-SDC1 amount per cell number
1,O=C1CN(/N=C/c2ccc([N+](=O)[O-])o2)C(=O)N1 [Nitrofurantoin],inactive: 0.681
2,COc1ccc2[nH]c([S+]([O-])Cc3ncc(C)c(OC)c3C)nc2c1 (stereo not given) [Omeprazole],active: 0.482
3,NC[C@@H]1O[C@H](O[C@H]2[C@@H](O)[C@H](O[C@@H]3[C@@H](O)[C@H](N)C[C@H](N)[C@H]3O[C@H]3O[C@H](CN)[C@@H](O)[C@H](O)[C@H]3N)O[C@@H]2CO)[C@H](N)[C@@H](O)[C@@H]1O [Neomycin sulfate],inactive: 1.27
4,CCC(CC)[C@H](NC(C)=O)[C@@H]1[C@H](O)[C@@H](C(=O)O)C[C@H]1NC(=N)N [Peramivir Trihydrate],inactive: 0.936
5,CCCSc1ccc2[nH]c(NC(=O)OC)nc2c1 [Albendazole],inactive: 0.743
6,CCCc1ncc(C[n+]2ccccc2C)c(N)n1 [Amprolium HCl],inactive: 1.61
7,CC1CCc2cc(F)cc3c(=O)c(C(=O)O)cn1c23 (stereo not given) [Flumequine],inactive: 0.7
8,CC(COc1ccccc1)NC(C)C(O)c1ccc(O)cc1 (stereo not given) [Isoxsuprine (hydrochloride)],inactive: 0.755
9,CCOC(=O)[C@H](CCc1ccccc1)N[C@@H](C)C(=O)N1Cc2ccccc2C[C@H]1C(=O)O [Quinapril HCl],inactive: 0.812
10,C[C@H]1CN(C[C@H](Cc2ccccc2)C(=O)NCC(=O)O)CC[C@@]1(C)c1cccc(O)c1 [Alvimopan],inactive: 1.37
11,Nc1nc2c(ncn2COCCO)c(=O)[nH]1 [Acyclovir],inactive: 0.781
12,C1N2CN3CN1CN(C2)C3 [Methenamine],inactive: 0.901
13,COC(=O)N[C@H](C(=O)N1CC2(CC2)C[C@H]1c1nc(-c2ccc3c(c2)C(F)(F)c2cc(-c4ccc5[nH]c([C@@H]6[C@H]7CC[C@H](C7)N6C(=O)[C@@H](NC(=O)OC)C(C)C)nc5c4)ccc2-3)c[nH]1)C(C)C [Ledipasvir],inactive: 0.722
14,O=c1c(-c2ccc(O)cc2)coc2cc(O)ccc12 [Daidzein],inactive: 0.913
15,CC/C(=C(/CC)c1ccc(O)cc1)c1ccc(O)cc1 [Diethylstilbestrol],active: 0.178
16,Nc1ccc(C(=O)NCC(=O)O)cc1 [Sodium 4-amiropparaty Hyalrate],inactive: 0.801
17,CC(C[N+](C)(C)C)OC(N)=O (stereo not given) [Bethanechol chloride],inactive: 1.29
18,CC(C)n1c(/C=C/C(O)CC(O)CC(=O)O)c(-c2ccc(F)cc2)c2ccccc21 (stereo not given) [Fluvastatin Sodium],inactive: 0.739
19,CCOC(=O)[C@H](CCc1ccccc1)N[C@H]1CS[C@H](c2cccs2)CN(CC(=O)O)C1=O [Temocapril HCl],inactive: 0.89
20,CNC(=O)c1cc(Oc2ccc(NC(=O)Nc3ccc(Cl)c(C(F)(F)F)c3)c(F)c2)ccn1 [Regorafenib hydrochloride],inactive: 0.689
